Assay results: the supplement of paper PMC12632987
The full ranking holds about 4,500 sequences; the median of “median log2 fold change of GCK-ALFA target abundance (FLAG IP / Myc IP barcode read proportion)” is about 0.078, and the lowest 2% start at about -0.6. This is one part of the list.

B1: GBRAP_11_2665 (protein)
chain: KKEVYEKAAKLARELAELVKKLIEEGIDNEKLREEAEKALKELEELAKKYLDEADKKDVEVLKEIWEEALKNKENRLEYWEQLLAAARVLEGNFLLKADE
B2: GBRAP_11_2727 (protein)
chain: KKEELKKLAEEAEKLAEEIEKLIKEGPTLEELKKLLERARELARRAKEIGADESIVEDLEIAAEELEEAIKNPENTLEHLKNALAAARVAAGNLLLELEE
B3: GBRAP_125_3011 (protein)
chain: ALAEAVAALEALAARLGLSADEVAELGEQARAHGVKQALIALFLAEGWEENAELAAKLTEAEAAAALARLVARLAANPDLTPEEVKALAREILEEVVAAS
B4: GBRAP_128_3465 (protein)
chain: STEEAVAYTRETLEKIKKADLETARKLFEELAERLATLSLEEVEAVVEEILKHLPELTAEKLEILAEVFSKALPKFTPEKRALVAEVISAALLQAEELEE
B5: GBRAP_11_2748 (protein)
chain: KKEKLKEIAKAAEELAALLDKLIAEGVDNAELQAAAEKALKELAELVEKYGDESLKKLVAIIQEEFAQAKADPATAEAHWRNALAAARVLAGQVLLEIEE
B6: GBRAP_125_3090 (protein)
chain: EEEQLAEDLRLLALALGFSEEDAEEAARIARASSVKGTLYAIFAAEGEEELAELVEKLTEEEAAEVLKRLAAYLKANPDLSKEEVVEKAKELVKEALAAR
B7: GBRAP_184_5024 (protein)
chain: KVIEEEIEAENLEELKEKLAALREKVKGSGATLIVSVDLKNPTEEMVKTLITGLGAMKKAGDVSDVTIGFNNELSEELIDVALKTGDEEGVKVVLAISEE
B8: GBRAP_128_3517 (protein)
chain: SMAAAVARVDELMARIREASPEEAARLTREIAALLAAADPETREAMVARFEELLPELSREHLLTVADTLRELRPGADPYTANLLAGVEVAALNEAEELEE

target: GABARAP, O95166; test: median log2 fold change of GCK-ALFA target abundance (FLAG IP / Myc IP barcode read proportion) (log2 ratio); each designed protein is fused to an ALFA-tag nanobody in HEK293 cells to bring the named protein to FLAG-tagged glucokinase (GCK); Myc marks an untargeted standard; higher = target protein stabilised (more abundant); conditions: target protein: 3xFLAG-MCP-GCK-ALFA reporter; HEK293 landing pad (RPLP)
How it was run: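 HEK293 landing-pad cells received a recombined binder library fused to the ALFA nanobody and were induced with 2 μg mL^−1 doxycycline, then transfected with a plasmid encoding a FLAG-tagged target and a Myc-tagged standard. Lysates were collected after 48 h for anti-FLAG and anti-Myc immunoprecipitation, and the circular RNA barcodes were reverse transcribed, amplified and sequenced. Target abundance for each binder is the median log2 ratio of FLAG to Myc barcode read proportions. Barcodes had to reach a proportion of at least 10^−7 in both replicates, each binder needed at least 3 barcodes per replicate, a pseudocount of 10^−6 was applied, and the two replicates were pooled.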

Chain of GABARAP, O95166 (O95166 whole entry, the tested form may be a part): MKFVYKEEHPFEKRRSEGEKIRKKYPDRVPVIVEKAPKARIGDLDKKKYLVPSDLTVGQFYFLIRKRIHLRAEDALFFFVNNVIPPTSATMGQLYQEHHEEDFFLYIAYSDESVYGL

Binder	median log2 fold change
B1	0.223
B2	0.292
B3	0.201
B4	0.246
B5	0.194
B6	0.188
B7	-0.095
B8	0.198
